Data reported in PMC6919601, “Identification of Plasmodium dipeptidyl aminopeptidase allosteric inhibitors by high throughput screening” (PLoS ONE, 2019).
Out of some 110,000 compounds screened, about 230 (0.21%) showed an effect of 50% or more. The list shows a part of the results.

These compounds were tested against DPAP1 (Plasmodium falciparum, UniProt Q8IIJ9) (assay: primary screen, percent inhibition; read by cleavage of a fluorogenic dipeptide substrate; higher = more effect of the substance).
DPAP1, sequence (Q8IIJ9 whole entry, looked up): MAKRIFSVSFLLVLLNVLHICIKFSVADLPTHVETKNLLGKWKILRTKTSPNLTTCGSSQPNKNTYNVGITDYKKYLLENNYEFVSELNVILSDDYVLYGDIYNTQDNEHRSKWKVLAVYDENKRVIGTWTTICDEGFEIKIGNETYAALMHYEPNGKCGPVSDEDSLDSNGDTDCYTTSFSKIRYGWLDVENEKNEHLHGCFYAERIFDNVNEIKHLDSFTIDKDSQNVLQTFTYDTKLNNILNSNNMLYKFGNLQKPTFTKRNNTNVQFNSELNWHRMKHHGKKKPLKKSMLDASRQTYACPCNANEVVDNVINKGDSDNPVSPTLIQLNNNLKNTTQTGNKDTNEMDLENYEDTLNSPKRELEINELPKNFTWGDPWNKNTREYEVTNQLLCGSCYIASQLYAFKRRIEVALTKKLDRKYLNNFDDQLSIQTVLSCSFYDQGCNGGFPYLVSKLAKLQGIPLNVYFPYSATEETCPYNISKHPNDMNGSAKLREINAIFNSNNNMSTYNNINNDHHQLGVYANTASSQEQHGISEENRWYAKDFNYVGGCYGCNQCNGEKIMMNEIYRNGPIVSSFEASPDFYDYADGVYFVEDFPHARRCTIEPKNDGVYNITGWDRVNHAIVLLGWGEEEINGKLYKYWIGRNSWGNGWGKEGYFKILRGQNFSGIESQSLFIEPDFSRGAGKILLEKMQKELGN
Set-up: species or system P. falciparum D10 trophozoite lysates; single well
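Also: 30 min substrate incubation versus DMSO and 10 µM JCP410 controls.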

Row | Structure (SMILES) | % Inhibition @ 10 uM [%]
1 | CCOc1ccccc1N1CCN(Cc2sccc2C)CC1 | -2.56
2 | CCSc1sc(CC)cc1C1C2=C(O)CCCC2=NC(C)=C1C(=O)Nc1cc(C)ccn1 (stereo not shown) | -3.06
3 | COc1ccc(OC)c(C2=NOC(C(=O)N3CCCCC3C)C2)c1 (stereo not shown) | 1.24
4 | Cn1c(=O)c2c(nc(CN3CCc4ccccc4C3)n2CC(=O)c2ccccc2)n(C)c1=O | -5.1
5 | CCOc1c(C=C(C#N)C#N)c2ccccc2n1-c1c(Cl)cccc1Cl | -1.42
6 | CC(=O)Nc1ccc(Oc2ccc(NC(C)=O)c(NC(C)=O)c2)cc1 | 70.7
7 | COc1ccc(/C=C2\N=C(SCC(=O)Nc3ccccc3)N(C)C2=O)cc1OC | 2.68
8 | O=C(CN1CCN(Cc2ccc(Cl)cc2)C1=O)NCc1ccc2c(c1)OCO2 | 3.07
9 | Cc1ccc(N(CC(=O)N2CCC(C)CC2)S(=O)(=O)c2ccccc2)c(C)c1 | 5.85
10 | Cc1nn(-c2nc3ccccc3s2)c2c1C(c1cccc(F)c1F)CC(=O)N2 (stereo not shown) | -2.88
11 | Cc1ccc(C)c(NC(=O)CN(c2ccc(C)c(Cl)c2)S(C)(=O)=O)c1 | 4.47
12 | O=C(CSc1nc(-c2ccccc2)nc2cc(=O)[nH]n12)N1CCCC1 | 4.97
13 | O=C(Nc1cnn(Cc2ccc(F)cc2)c1)c1cc(Cl)ccc1Cl | -4.89
14 | Cn1ncc(Cl)c1C(=O)Nc1cnn(Cc2ccc(Cl)cc2Cl)c1 | 0.385
15 | Cc1ccc(C2N(c3nccs3)C(=O)C3CCCN32)cc1 (stereo not shown) | 1.23
16 | Cc1ccc2oc(C(=O)Nc3nc4ccc(S(C)(=O)=O)cc4s3)cc(=O)c2c1 | -5.08
17 | COC1CCCCC1NCCc1ccccc1 (stereo not shown) | 3.44
18 | CCO/C(O)=C1/C(C)=NC2=C(C(=O)CCC2)C1c1ccc([N+](=O)[O-])cc1 (stereo not shown) | 1.62
19 | CCOCCn1c(CN2CCc3ccccc3C2)nc2c1c(=O)n(C)c(=O)n2C | -3.23
20 | COc1ccc(-c2cc(O)cc3sc(=O)oc23)cc1 | 0.968
21 | CC(C)(C)C(=O)Nc1nnc(COc2ccc(C(C)(C)C)cc2)s1 | 1.58
22 | CC(=O)c1ccc(OCC(C)C)c(CN2CCCCC2)c1 | 2.24
23 | Cc1cc(C)c2c(-n3cccc3)c(C(=O)NCCN3CCCCCC3)sc2n1 | 3.87
24 | c1csc(-c2csc(-c3nc(-c4cccs4)cs3)n2)c1 | -2.65
25 | CC(=O)c1nn(-c2ccc(Br)cc2)cc1C(=O)c1ccco1 | -3.72

Row | Structure (SMILES) | % Inhibition @ 10 uM [%]
26 | c1ccc(OCCCCn2ccnc2)cc1 | 2.76
27 | Cc1ccc(S(=O)(=O)N(C)c2ccc(C(=O)Nc3ccc4c(c3)OCO4)cc2)cc1 | -4.62
28 | CCOC(=O)N1CCC(Nc2ccc3[nH]ncc3c2)CC1 | 1.43
29 | c1ccc(-c2ncc3c(ccc4ccccc43)n2)cc1 | 1.44
30 | Cc1cccnc1NC(=O)C(C)c1ccc(CC(C)C)cc1 (stereo not shown) | -3.03
31 | Cc1ccc(CNCc2c(C(=O)O)n(Cc3ccccc3F)c3ccccc23)cc1 | 22.5
32 | CN(CCC#N)S(=O)(=O)c1ccc(-c2ccc([N+](=O)[O-])cc2)cc1 | -3.48
33 | Cc1ccc(-c2cc(C(=O)NCCCN3CCOCC3)c3ccccc3n2)c(C)c1 | -1.1
34 | NS(=O)(=O)c1ccc(NC2=NC(=O)/C(=C/c3cc(O)ccc3Br)S2)cc1 | 10.1
35 | CCOC(=O)N1CCN(Cc2ccc(F)c(F)c2)CC1 | 1.62
36 | Cc1cccc(NC(=O)CN2CC(c3ccccc3)CC2=O)c1 (stereo not shown) | -5.1
37 | COc1ccc(C(=O)Nc2cccc(NC(=O)c3ccc(OC)cc3)n2)cc1 | 0.605
38 | COc1ccc(C(=O)Nc2ccccc2C(=O)Nc2ccc(OC)cc2OC)cc1 | 4.98
39 | COc1ccc(C2=NOC(C(=O)NCCCn3ccnc3)C2)cc1 (stereo not shown) | -3.67
40 | Cc1ccsc1/C=C1/C(=O)N=C(N)N1C | 4.18
41 | Cn1ncc(Cl)c1C(=O)NCc1cc2ccccc2[nH]1 | -0.68
42 | Cc1ccc(-n2c(S)nnc2COc2cccc(C)c2)cc1 | 10.4
43 | CCOC(=O)C1=C(c2ccccc2)OC(N)=C(C#N)C1c1ccc(Br)s1 (stereo not shown) | 3.19
44 | O=C(NCCC1=CCCCC1)C1CCN(S(=O)(=O)N2CCC3(CC2)OCCO3)CC1 | -2.99
45 | CC(=O)N(C)C1(C(=O)NC2CCCC2)CCCCC1 | 3.05
46 | COc1ccc(C(=O)NC(C)c2cc(OC)c(OC)cc2Br)cc1 (stereo not shown) | 1.83
47 | CCc1ccc(CNCc2c(C(=O)O)n(C)c3ccccc23)cc1 | -5.75
48 | CCOc1ccccc1C1C2=C(O)CCCC2=Nc2nc(SCC)nn21 (stereo not shown) | -5.49
49 | CNC(=O)C1CCN(c2nnc(C)c3c(C)n(-c4ccc(C)cc4)nc23)CC1 | -5.51
